Assay results as given in the supplement of paper PMC3334620.
Whole data set: some 33,000 sequences, median “E-score (-0.5 to 0.5)” near -0.032, cut for the highest 2% near 0.36. Some of the results follow.

Target: T1, Sko1 (UniProt Q02100)
T1 sequence: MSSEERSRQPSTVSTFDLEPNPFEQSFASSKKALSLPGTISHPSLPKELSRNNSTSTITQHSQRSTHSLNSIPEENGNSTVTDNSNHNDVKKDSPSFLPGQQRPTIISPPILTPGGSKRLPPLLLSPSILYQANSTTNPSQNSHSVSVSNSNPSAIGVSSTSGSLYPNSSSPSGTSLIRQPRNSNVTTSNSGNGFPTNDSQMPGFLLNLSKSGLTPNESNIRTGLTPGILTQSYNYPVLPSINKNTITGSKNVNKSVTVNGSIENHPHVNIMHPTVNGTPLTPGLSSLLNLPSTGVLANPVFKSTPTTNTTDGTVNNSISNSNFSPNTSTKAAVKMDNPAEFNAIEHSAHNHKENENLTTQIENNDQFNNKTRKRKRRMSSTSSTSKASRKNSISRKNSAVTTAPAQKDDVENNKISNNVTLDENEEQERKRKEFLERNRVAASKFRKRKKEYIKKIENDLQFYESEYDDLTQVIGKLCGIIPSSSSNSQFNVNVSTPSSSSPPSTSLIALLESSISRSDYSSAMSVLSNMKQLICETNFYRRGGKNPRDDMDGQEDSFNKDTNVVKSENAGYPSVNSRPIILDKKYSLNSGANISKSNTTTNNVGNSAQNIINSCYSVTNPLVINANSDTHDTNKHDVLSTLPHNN
Assay: PBM E-score (8-mer binding enrichment) (E-score (-0.5 to 0.5)); higher = stronger / more preferred TF binding; most listed sequences are background and not binding sites
Details: protein concentration: 200 nM; construct: GST-full length
Method in brief: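 Universal all-10-mer Agilent arrays, double-stranded by primer extension on fresh or once-stripped slides, were probed with about 100-200 nM GST-tagged yeast transcription factors made by PURExpress. Fluorescent anti-GST detected bound protein, and masliner normalised the scans. E-scores from the Universal PBM Analysis Suite were given to each ungapped eight-base word pooled with its reverse complement.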

Sequence | PBM E-score
GATCCGGA | -0.272
AATTTCGC | 0.0675
ATACGGCG | 0.0396
ATAGCATC | 0.16
CACTCTTA | -0.00406
GACACCTC | -0.167
CTTGAAAC | -0.0486
GCCCGGGC | -0.186
GCGTGTCA | 0.216
ACTCCAGA | -0.0951
CTTCGACA | -0.0275
AGAACGAT | -0.0494
ACTAGTAG | 0.0587
ATGCGCAC | 0.139
CGGAATAC | 0.0896
AGGTCTCA | -0.131
ATCGTACA | 0.168
AGGAAGAG | -0.157
CATCCTAG | -0.052
ACACTCTA | 0.183
ACGGAGAG | -0.221
TCCTCACA | -0.0737
TACTAAAA | 0.135
ACCCGTCT | -0.0961
AAATGTCA | 0.108

Sequence | PBM E-score
GAGAGTGA | 0.045
CCGAACGA | -0.133
GGGAAACA | -0.124
AATGTATG | 0.127
ATTTTTTA | 0.194
AGCCCGCG | -0.238
TGTCGGAA | -0.136
GATCGCCA | -0.27
CATCCATG | -0.0119
GACCGGAA | -0.215
CAAACGAC | 0.11
AGGGCGAA | -0.185
AAAGCGTG | -0.0117
CCTGAGGC | -0.278
CCAGCCCA | -0.306
CGCTTTAC | 0.2
GCCAAGGA | -0.0705
AACGGGGA | -0.232
CGCGGACA | -0.0824
CGTGTTTA | 0.322
GCCTGCGA | -0.245
TCATCCAA | 0.232
AATGAACT | 0.0989
GCAATTGA | 0.0583
GCGGGAGA | -0.2

Sequence | PBM E-score
CTGTTAGC | -0.139
ACTAAATC | 0.102
CACACGGC | -0.0173
CAGTATAG | -0.0527
AAAGATGA | 0.219
AGATTGAG | 0.17
GGAAGTGA | 0.119
CAATCACC | -0.0727
AAGATGAC | 0.337
CGCGCGCC | 0.147
CAAAACGC | 0.162
ACAGAGGC | -0.261
ATAAGTAC | -0.0609
CCAAGGCG | -0.271
ATTAAGGG | -0.167
GACACCGC | -0.2
CCGCAGAC | -0.28
CGTTTTTC | 0.182
AAGAAGGA | -0.0217
TGAGTGCA | -0.0765
AAGGATAT | 0.145
GAGTCAAC | -0.0377
ACACCGCA | -0.17
CCCGCAAG | -0.317
AATTAGGA | 0.0897

Sequence | PBM E-score
AACACCCG | 0.00585
AATTTTTA | 0.182
ACACGTAC | 0.419
CAACGGTC | -0.134
AGAGGCGA | -0.212
AGAGGCAA | -0.0224
GCCCCATA | -0.119
ACCTTCTA | -0.163
GAGCAATC | -0.0678
GGAGGCCA | -0.306
CCTACGCG | 0.117
AGTGCTCG | -0.0672
GCTAGGAA | -0.135
CCAACAGA | -0.143
CACCTACC | -0.0877
CAGAAAAA | 0.067
CATTCTAG | 0.0818
ATCTCGAG | -0.0182
GGGCTAAA | -0.182
AGCGGGGA | -0.159
CGGGTTTA | -0.0485
ACACCGCT | -0.242
CTCGTGAC | 0.222
ACGACCAA | 0.18
GGACCTAC | -0.106

Sequence | PBM E-score
CACAGAGG | -0.0682
ACACTTCG | 0.185
CCTGGCCG | -0.199
AAATTTCT | 0.00551
CCTATGCA | -0.039
AGGTAATG | 0.112
GCTTGGAA | -0.0775
AATTTAAA | 0.137
GACCACGC | 0.0665
CCACACGC | 0.0227
TCTCGCCA | -0.0542
CAAGTAAA | 0.0923
CGTTGTTC | 0.151
ACCTGGTC | -0.211
CGTGCTAC | 0.208
CTGGTAGA | -0.0603
ACAATTTC | 0.0832
CGGGGTAA | 0.0163
CCATCCAA | -0.101
CATTCGGA | 0.188
ATCTGCCG | -0.0838
CTCTGTAA | -0.131
GCTTCCGA | -0.0736
ATATGGTG | -0.0276
GACCAGTA | -0.214

Sequence | PBM E-score
CCAACTTC | -0.0206
GTGAATTA | 0.162
ACCCCCAG | -0.345
AGCTTCCA | -0.177
CTTAGAGC | -0.127
ACAGAGGT | -0.158
CGTTGAAC | -0.041
GGGTGGTA | -0.121
AGCGATAA | 0.00521
CGTAACAC | 0.374
ACAGGCCT | -0.292
ACCCCAGT | -0.167
AGATGATG | 0.308
CAGGTAGA | -0.0818
CAGGAAGG | -0.261
CTTCCATA | -0.00611
GTCGTTTA | 0.266
GGGGGGCA | -0.211
GGCCGTTA | -0.125
GGCTAGCC | -0.379
AGTTAACG | 0.169
ACGGGCTG | -0.139
TGACCCCA | -0.0496
CAGTCTAA | 0.0503
TCGGTAGA | 0.0245

Sequence | PBM E-score
AAAATCTT | 0.0968
AGAGGGAG | -0.139
CTTAGACC | -0.0125
ACCGGCAC | -0.163
ACAGTGAG | -0.0194
GGGCATTA | -0.227
CTTAGCTC | -0.0962
AATTACCT | 0.19
CCTTCCAC | -0.0222
GCTCACTA | -0.102
ACTTGTAC | -0.00416
CCTCTTCC | -0.343
ATGGTAGC | -0.243
GACGAACC | 0.0641
TACCCTCA | -0.101
GCCCAGTA | -0.154
AGGGGCTC | -0.14
CCAGCGCA | -0.189
AAGGTACC | -0.202
GTTACAAA | 0.213
CGCGGTTC | 0.106
TAAGCGTA | 0.0865
